{
  "source": "paper PMC12455566",
  "about": "“Structural Elucidation and Covalent Modulation of the Autorepressed Orphan Nuclear Receptor NR2F6” (ACS Chemical Biology, 2025)",
  "key": {"LBD of NR2F2": {"system": "LBD of NR2F2", "details": "targeting the LBD of NR2F2; cited from earlier work", "excerpt": "As a true orphan receptor, endogenous ligands modulating NR2F6 activity remain unknown. […] A metabolite screening identified 1-deoxysphingolipids as binders of the NR2F1/NR2F2 LBD, promoting NR2F1/NR2F2 transcriptional activity. […] A r ..."}, "NR2F6 LBD": {"biological_target": "T1, NR2F6 LBD (Homo sapiens, UniProt P10588)", "T1 sequence (P10588 164-404)": "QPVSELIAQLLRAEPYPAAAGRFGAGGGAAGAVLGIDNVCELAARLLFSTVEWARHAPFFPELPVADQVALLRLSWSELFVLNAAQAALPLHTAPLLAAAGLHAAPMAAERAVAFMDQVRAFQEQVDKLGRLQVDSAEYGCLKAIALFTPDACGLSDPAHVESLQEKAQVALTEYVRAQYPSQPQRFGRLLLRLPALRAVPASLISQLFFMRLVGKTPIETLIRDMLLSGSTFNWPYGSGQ", "assay": "TR-FRET recruitment of NR coregulator peptides in the presence of ligand", "format": "biochemical", "design": "encoding the human NR2F6 LBD (residues 164-404) with an N-terminal; made in house; host or cells: E. coli BL21(DE3)", "details": "50 µM non-covalent ligand, technical triplicate", "procedure": "(§1) by sequencing (Baseclear).\n(§2) with 0.1% (v/v) formic acid.\n(§3) to deconvolute the m/z spectra.\n(§4) Crystals grew within three days\n(§5) frozen in liquid nitrogen.\n(§6) generated using AceDRG 20.\n(§7) Plates were incubated for one\n(§8) nm) using the supplier recommended HTRF settings.\n(§9) fitted using a four-parameter logistic equation.\n(§10) peptide background. Data recorded in triplicate."}, "NR2F6^C203A LBD": {"system": "NR2F6^C203A LBD", "assay": "TR-FRET coregulator recruitment with covalent probes, C203A", "format": "biochemical, human", "details": "NSD1, BCL11A-1, BCL11A-2 recruitment", "procedure": "as §1, §2, §3, §4, §5, §6, §7, §8, §9, §10"}, "wildtype NR2F6 LBD": {"biological_target": "T2, wildtype NR2F6 LBD (Homo sapiens, UniProt P10588)", "T2 sequence (P10588 165-393 limits assumed)": "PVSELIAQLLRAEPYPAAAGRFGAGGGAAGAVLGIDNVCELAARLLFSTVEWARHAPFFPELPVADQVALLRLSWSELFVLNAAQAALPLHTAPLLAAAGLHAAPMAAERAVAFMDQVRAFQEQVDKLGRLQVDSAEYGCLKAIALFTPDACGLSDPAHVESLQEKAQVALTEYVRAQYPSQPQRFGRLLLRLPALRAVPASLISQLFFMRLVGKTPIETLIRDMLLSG", "assay": "TR-FRET coregulator recruitment upon full ligation, wildtype", "format": "biochemical", "details": "relative to DMSO, three independent experiments", "procedure": "as §1, §2, §3, §4, §5, §6, §7, §8, §9, §10"}},
  "data": [
    {"compound": "COc1ccc(O)c2ccccc12", "note": "[4-methoxynaphthol]", "values": [
      {"measurement": "inhibition (in words)", "setting": "LBD of NR2F2", "result": "inhibitors targeting the LBD of NR2F2"}
    ]},
    {"compound": "CC1=C(/C=C/C(C)=C\\C=C\\C(C)=C\\C(=O)O)C(C)(C)CCC1", "note": "[9-cis-retinoic acid]", "values": [
      {"measurement": "effect on recruitment of F/YSXXLXXL/Y motifs (in words)", "setting": "NR2F6 LBD", "result": "failed to significantly alter recruitment of F/YSXXLXXL/Y motifs"},
      {"measurement": "recruitment of canonical NR coregulators (in words)", "setting": "NR2F6 LBD", "result": "failed to significantly alter recruitment of F/YSXXLXXL/Y motifs or induce recruitment of canonical NR coregulators"}
    ]},
    {"compound": "COc1ccc(CCNc2ncnc3sc(C)cc23)cc1OC.Cl", "note": "[CIA1]", "values": [
      {"measurement": "inhibition (in words)", "setting": "LBD of NR2F2", "result": "inhibitors targeting the LBD of NR2F2"}
    ]},
    {"compound": "O=C(Nc1ccccc1O)c1cc([N+](=O)[O-])ccc1Cl", "note": "[III]", "values": [
      {"measurement": "inhibitory activity after C203A mutation (in words)", "setting": "NR2F6^C203A LBD", "result": "lost almost all of their inhibitory activity"},
      {"measurement": "fold reduction in BCL11A-1 recruitment", "setting": "wildtype NR2F6 LBD", "result": 9, "unit": "fold"},
      {"measurement": "fold reduction in NSD1 recruitment", "setting": "wildtype NR2F6 LBD", "result": 24, "unit": "fold"},
      {"measurement": "inhibition of BCL11A-2 recruitment (in words)", "setting": "wildtype NR2F6 LBD", "result": "complete inhibition"}
    ]},
    {"compound": "Cc1c(C)c2c(c(C)c1O)CCC(C)(COc1ccc(CC3SC(=O)NC3=O)cc1)O2", "note": "(stereo not drawn) [troglitazone]", "values": [
      {"measurement": "effect on recruitment of F/YSXXLXXL/Y motifs (in words)", "setting": "NR2F6 LBD", "result": "failed to significantly alter recruitment of F/YSXXLXXL/Y motifs"}
    ]}
  ]
}
